{"source": "PubChem BioAssay AID1645887", "about": "(National Center for Advancing Translational Sciences (NCATS), 2021)", "note": "Where “and” joins values, the source holds several entries; their conditions need not be identical. Equal entries are not always repeated. Among all 16,000 compounds or so, about 40 (0.2%) were called active. Roughly 1% stayed inconclusive and do not appear here. Calls follow the shape of the dose curve; as a rule, active = well fitted activation curve with a large enough effect; inconclusive = small, poorly fitted or top-dose-only effect, or another doubt; inactive = no such curve, though single readings can be large or run the other way. This is one part of the list. % is scaled to controls: 0 for no effect and ±100 for the full control effect."}
{"target": "Rap guanine nucleotide exchange factor 4 (Homo sapiens) (UniProt Q8WZA2)", "sequence (Q8WZA2 whole entry, looked up)": "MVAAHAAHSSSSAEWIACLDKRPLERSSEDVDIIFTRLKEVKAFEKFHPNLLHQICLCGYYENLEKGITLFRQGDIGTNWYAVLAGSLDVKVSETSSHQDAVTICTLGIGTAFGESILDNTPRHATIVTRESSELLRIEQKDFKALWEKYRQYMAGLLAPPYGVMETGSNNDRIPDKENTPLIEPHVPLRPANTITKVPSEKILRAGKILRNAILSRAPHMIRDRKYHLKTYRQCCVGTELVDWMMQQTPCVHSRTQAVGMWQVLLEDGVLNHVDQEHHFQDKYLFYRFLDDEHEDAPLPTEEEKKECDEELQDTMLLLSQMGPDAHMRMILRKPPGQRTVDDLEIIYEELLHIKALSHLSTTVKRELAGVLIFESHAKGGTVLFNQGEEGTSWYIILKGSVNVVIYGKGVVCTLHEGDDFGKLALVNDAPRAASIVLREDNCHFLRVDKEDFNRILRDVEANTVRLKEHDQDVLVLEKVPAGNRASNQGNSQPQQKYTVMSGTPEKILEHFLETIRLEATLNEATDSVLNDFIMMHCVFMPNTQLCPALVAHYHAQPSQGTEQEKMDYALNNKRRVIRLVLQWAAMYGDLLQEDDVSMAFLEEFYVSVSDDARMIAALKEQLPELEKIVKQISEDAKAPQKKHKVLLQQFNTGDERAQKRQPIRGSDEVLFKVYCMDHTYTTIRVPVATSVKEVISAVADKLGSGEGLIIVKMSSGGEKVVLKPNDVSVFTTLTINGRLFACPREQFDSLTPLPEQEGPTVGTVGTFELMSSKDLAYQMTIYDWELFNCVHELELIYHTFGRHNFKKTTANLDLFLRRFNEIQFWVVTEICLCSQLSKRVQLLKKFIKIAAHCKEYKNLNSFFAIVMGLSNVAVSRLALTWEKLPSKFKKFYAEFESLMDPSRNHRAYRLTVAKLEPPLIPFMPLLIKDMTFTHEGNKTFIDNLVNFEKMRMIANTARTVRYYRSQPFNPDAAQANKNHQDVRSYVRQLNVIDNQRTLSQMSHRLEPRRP", "test": "Validation qHTS for agonist of cAMP-regulated guanine nucleotide exchange factor 4 (EPAC2);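 also: exchange makes BODIPY-GDP fluorescence drop when released from Rap1B; series mostly up to about 150 µM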", "conditions": "EPAC2 Rap1B BODIPY-GDP exchange, fluorescence; activation: hits give high values", "description": "Principle Investigator: Xiaodong Cheng Ph.D.\nThe University of Texas Medical Branch, […], TX\nIn multi-cellular eukaryotic organisms, the effects of cAMP are transduced by two ubiquitously-expressed intracellular cAMP receptors, the classic protein kinase A/cAMP-dependent protein kinase (PKA/cAPK) and the more recently discovered exchange protein directly activated by cAMP/cAMP-regulated guanine nucleotide exchange factor (EPAC/cAMP-GEF). Both PKA and EPAC are ubiquitously expressed in all tissues, and an increase in intracellular cAMP levels will lead to the activation of both PKA and EPAC. Therefore, careful dissections of the individual role and relative contribution of EPAC and PKA within the overall cAMP signaling in various model systems are critical for further elucidating the mechanism of cAMP signaling. To date no EPAC-specific antagonists and agonist, as well as isoform-specific agonists have been reported, and developing EPAC-specific pharmacological probes to determine the physiological functions that EPAC play in the overall cAMP-mediated signaling remains a major challenge within the research field. Furthermore, identified regulators of EPAC may lead to new mechanism-based therapeutic strategies specifically targeting the EPAC / cAMP-signaling components as EPAC has been implicated to play important roles in major human pathological conditions such as diabetes, heart disease, and cancer.\nThis qHTS will be used to screen the Molecular Libraries Small Molecule Repository (MLSMR) as a concentration-titration series using the NCGC unique quantitative screening (qHTS) platform to find activators for EPAC1. In addition, this assay will also be used as a counterscreen for the EPAC2 qHTS. This fluorescent based assay is developed and validated for EPAC1 that measures exchange using EPAC effector Rap1 complex with BODIPY-GDP, a GDP analog with a tethered fluorophores. Activators are identified by monitoring the change in fluorescence signal as the exchanged free BODIPY-GDP has a reduced fluorescence compared to Rap1-bound BODIPY-GDP. Increase in signal (activation) is the desired outcome for the EPAC1 agonist while no activity in this assay is desired for the EPAC2 agonist counterscreen.\n[1] de Rooij, J., Zwartkruis, F. J., Verheijen, M. H., Cool, R. H., Nijman, S. M., Wittinghofer, A., and Bos, J.L. (1998) Nature 396, 474-477.\nBriefly, three uL of reagents (100 nM EPAC2, 250 nM RAP1B-BODIPY-GDP, 50 uM GDP) were dispensed into a 1536-well Greiner black solid-bottom medium binding assay plate. Controls and test compounds (23 nL) were transferred to the plate via a Kalypsys pin tool equipped with a 1536-pin array. The plates were centrifuged at 1,000 rpm for 15 seconds followed by 5 minute incubation at room temperature. The assay plates were read at 5 minute intervals for 30 minutes in the ViewLux plate reader using 480nm excitation and 540nm emission filters. The results were normalized to the agonist positive control of 6.5 mM cAMP."}
{"compound": "c1cc2c(cc1[C@H]1OC[C@@H]3[C@H]1CO[C@H]3c1ccc3c(c1)OCO3)OCO2", "activation": "inactive: 6.93%"}
{"compound": "CSc1nc(NC(C)C)nc(NC(C)C)n1", "activation": "inactive: -1.99%"}
{"compound": "CCN1C[C@]2(COC)C(O)C[C@H](OC)[C@@]34C5C[C@]6(O)C(OC)C(O)[C@](OC(C)=O)(C5C6OC(=O)c5ccccc5)C(C(OC)C23)C14", "note": "(some centres not stated)", "activation": "inactive: -6.95%"}
{"compound": "CCN[C@@H](C)Cc1ccccc1", "activation": "inactive: 1.25%"}
{"compound": "CCCN1CCC[C@@H]2Cc3nc(N)ncc3C[C@H]21", "activation": "inactive: 1.26% and inactive: -32.9%"}
{"compound": "COc1cc(CC(C)N)cc2c1OCO2", "note": "(configuration not stated)", "activation": "inactive: 0.0606%"}
{"compound": "OCC1CCCN2CCCCC12", "note": "(configuration not stated)", "activation": "inactive: -6.01%"}
{"compound": "CC1(C)[C@@H](O)C[C@H]2[C@](C)(O)[C@@H]3CC[C@H]4[C@@H](O)[C@@]3(C[C@@H](O)[C@@]21O)C[C@@]4(C)O", "activation": "inactive: 3.34% and inactive: 0.783%"}
{"compound": "C=CC[C@]1(O)CC[C@H]2[C@@H]3CCC4=CC(=O)CCC4=C3C=C[C@@]21C", "activation": "inactive: -5.32%"}
{"compound": "C[C@@H]1O[C@H](C[N+](C)(C)C)C[C@@H]1O", "activation": "inactive: 6.7%"}
{"compound": "CS(=O)(=O)c1ccc(C(=O)C2C(=O)CCCC2=O)c([N+](=O)[O-])c1", "activation": "inactive: -28.9%"}
{"compound": "C=CCN1CC[C@]23c4c5ccc(O)c4OC2C(=O)CC[C@]3(O)C1C5", "note": "(some centres not stated)", "activation": "inactive: 18%"}
{"compound": "COc1cc2c(cc1OC)-c1c(O)c(OC)cc3c1[C@H](C2)N(C)CC3", "activation": "inactive: 5.67%"}
{"compound": "CCOc1ccc2c3c1O[C@H]1[C@@H](O)C=C[C@H]4[C@@H](C2)N(C)CC[C@@]341", "activation": "inactive: 9.85%"}
{"compound": "Cn1cnc(CCN)c1", "activation": "inactive: -22.7%"}
{"compound": "COc1cc2c(cc1OC)-c1c(OC)c(OC)c(C=O)c3c1[C@H](C2)N(C)CC3", "activation": "inactive: 5.07%"}
{"compound": "Cc1ccccc1-n1c(CF)nc2ccc(N)cc2c1=O", "activation": "inactive: -7.51%"}
{"compound": "CCCCCC1C(=O)O[C@H](C)[C@@H](NC(=O)c2cccc(NC=O)c2O)C(=O)OC(C)C1OC(=O)CC(C)C", "note": "(some centres not stated)", "activation": "inactive: -40.8%"}
{"compound": "COc1ccc(NC(=O)N2CCCC3(CCN(C(=O)Oc4ccccc4)CC3)C2)cc1", "activation": "inactive: -4.9%"}
{"compound": "CC(Cc1ccc(O)cc1)NCC(O)c1cc(O)cc(O)c1", "note": "(configuration not stated)", "activation": "inactive: -3.33% and inactive: -4.16% and inactive: -2.87%"}
{"compound": "C/C(=C\\c1csc(C)n1)[C@@H]1C[C@@H]2O[C@]2(C)CCC[C@H](C)[C@H](O)[C@@H](C)C(=O)C(C)(C)[C@@H](O)CC(=O)O1", "activation": "inactive: -14.3%"}
{"compound": "C=C[C@H]1CN2CC[C@H]1C[C@@H]2[C@@H](O)c1ccnc2ccccc12", "activation": "inactive: -10.5%"}
{"compound": "CCN(CC)C(=O)/C(Cl)=C(\\C)OP(=O)(OC)OC", "activation": "inactive: -18.6%"}
{"compound": "C=CCN=C=S", "activation": "inactive: -31.4%"}
{"compound": "Nc1ncnc2c1ncn2[C@@H]1O[C@H](COP(=O)(O)CP(=O)(O)O)[C@@H](O)[C@H]1O", "activation": "inactive: 6.92%"}
{"compound": "CC(C)NC(=O)N1CCCC2(CCN(C(=O)Oc3ccccc3)CC2)C1", "activation": "inactive: -6.63%"}
{"compound": "COC(=O)/C(C)=C\\CC12OC(C)(C)C3CC(C=C4C(=O)c5c(OC)c6c(c(CC=C(C)C)c5OC431)OC(C)(CCC=C(C)C)C=C6)C2=O", "note": "(configuration not stated)", "activation": "inactive: -31.4%"}
{"compound": "CC(C)N(CCC(C(N)=O)(c1ccccc1)c1ccccn1)C(C)C", "note": "(configuration not stated)", "activation": "inactive: 7.55% [middle of 4 runs]"}
{"compound": "O=[N+]([O-])/C=C/c1ccc2c(c1)OCO2", "activation": "inactive: -17.7%"}
{"compound": "COP(N)(=O)SC", "note": "(configuration not stated)", "activation": "inactive: 1.01%"}
{"compound": "CCC12CCCN3CCC4(c5ccc(OC)c(O)c5N(C(C)=O)C4CC1)C32", "note": "(configuration not stated)", "activation": "inactive: -1.82%"}
{"compound": "CO[C@H]1[C@@H](O)C[C@H](O[C@H]2[C@@H](O)C[C@H](O[C@H]3[C@@H](O)C[C@H](O[C@H]4CC[C@@]5(C)[C@H](CC[C@@H]6[C@@H]5C[C@@H](O)[C@]5(C)[C@@H](C7=CC(=O)OC7)CC[C@]65O)C4)O[C@@H]3C)O[C@@H]2C)O[C@@H]1C", "activation": "inactive: -8.19%"}
{"compound": "C[C@H](N)[C@H](O)c1ccc(O)c(O)c1", "activation": "inactive: -12.9%"}
{"compound": "COC(=O)c1ccccc1C(=O)OC", "activation": "inactive: -7.65%"}
{"compound": "Clc1ccc(C2CC3CCC2N3)cn1", "note": "(configuration not stated)", "activation": "inactive: -3.14% and inactive: -8.51%"}
{"compound": "N#Cc1ccc(CN2CC[C@@]3(CCCNC3)C2)cc1", "activation": "inactive: 0.132%"}
{"compound": "C[C@@H]1[C@@H]2Cc3ccc(O)cc3[C@@]1(C)CCN2CC1CC1", "activation": "inactive: -6.65%"}
{"compound": "C[C@]12CCC(=O)C=C1CC[C@@H]1[C@H]3CC[C@](C)(O)[C@@]3(C)CC[C@@H]12", "activation": "inactive: -15.1%"}
{"compound": "CCN(CC)CCO[C@H]1CC[C@@]2(C)C(=CC[C@@H]3[C@H]2CC[C@]2(C)C(=O)CC[C@H]32)C1", "activation": "inactive: -9.88%"}
{"compound": "NCC(=O)c1ccc(Br)cc1", "activation": "inactive: -0.142%"}
{"compound": "CCC(=O)OC1CCC2C3CCC4=CC(=O)CC[C@@]4(C)C3CC[C@]12C", "note": "(some centres not stated)", "activation": "inactive: 5.54%"}
{"compound": "C=CCN1C[C@H](C)N([C@H](c2ccc(C(=O)N(CC)CC)cc2)c2cccc(O)c2)C[C@H]1C", "activation": "inactive: 0.992%"}
